The target in this experiment is T1, His-tagged RUVBL2 (murine) (mouse, UniProt Q9WTM5).
T1 construct: Murine RUVBL2 amplified from 18.81 cDNA with primers from the start codon to the stop codon, in pET28a(+); also called His-RUVBL2; source: E. coli, co-expressed with GST-tagged RUVBL1 and co-purified on GSH beads; E. coli, purified with His-RUVBL1 (Ni-NTA, Mono-Q, Superose 6); not shown: His tag, N-terminal, kept
The experiment can be described thus: SEC; His-RUVBL1/2 expressed in E. coli, purified by Ni-NTA, Mono-Q and Superose 6 gel filtration chromatography. Particulars: both partners purified. A general note: Size exclusion chromatography separates by hydrodynamic size, large species first.

B1: His-tagged RUVBL1 (murine) (natural protein)
chain: not shown
notes: Murine RUVBL1 amplified from 18.81 cDNA with primers from the start codon to the stop codon, subcloned in pET28a(+); also called His-RUVBL1; source: E. coli, purified with His-RUVBL2 (Ni-NTA, Mono-Q, Superose 6); not shown: His tag, N-terminal, kept
In the case of B1, the binding result is on record as “binds”.

The values are drawn from article PMC4511761, “Chromosome Missegregation Associated with RUVBL1 Deficiency” (PLoS ONE, 2015).
